Measured values from US8828401B2, “Cytotoxic peptides and antibody drug conjugates thereof” (Pfizer Inc., priority 2011, dated 2014).

Test system: MDA-MB-468 breast xenografts
Test: MDA-MB-468 breast xenografts with anti-Notch ADCs
Format: in vivo, female SCID Hairless Outbred (SHO) mice
Settings: vc6780 study
Method: Humanized anti-Notch antibodies, hu28 and hu75, and rat-human chimeric anti-Notch antibodies, ch28 and ch75, were conjugated to various linker-payload combinations and tested in 37622A1 non-small cell lung cancer (NSCLC), HCC2429 lung cancer, MDA-MB-468 breast cancer and N87 gastric cancer xenograft models. For each model described below the first dose was given on Day 0. The tumors were measured at least once a week and their volume was calculated with the formula: tumor volume (mm^3)=0.5×(tumor width^2)(tumor length). The mean tumor volumes (±S.E.M.) for each treatment group were calculated having a maximum of 10 animals and a minimum of 6 animals to be included.
Similar in vivo experiments were performed with the MDA-MB-468 breast cancer cell line as described above. […] To generate xenografts, female SCID Hairless Outbred (SHO) mice were orthotopically implanted with 10×10^6 MDA-MB-468 cells containing 50% Matrigel (BD Biosciences) in the mammary fat pad. When the tumors reached a volume of 250 to 450 mm^3, the tumors were staged to ensure uniformity of the tumor mass among various treatment groups. The MDA-MB-468 breast model was dosed intraveneously Q4dx4 with PBS vehicle, humanized anti-Notch ADCs and control huNeg-8.8 ADCs at the doses provided in Tables 14 and 15.

B1: hu28-vc6780 (conjugate)
heavy: EVQLVESGGGLVQPGGSLRLSCAASGFTFRDYGMTWVRQAPGKGLEWVAYISSGSNYIYYAEAVKGRFTISRDNAKNSLYLQMNSLRAEDTAVYYCARRGPFVLDAWGQGTLVTVSS[human IgG1 constant region left out]
light: DIQMTQSPSSLSASVGDRVTITCKASQSINRYLHWYQQKPGKAPKLLIYNANGLQTGVPSRFSGSGSGTDFTLTISSLQPEDFATYYCLQHNTWPDTFGGGTKVEIKRTVAAPSVFIFPPSDEQLKSGTASVVCLLNNFYPREAKVQWKVDNALQSGNSQESVTEQDSKDSTYSLSSTLTLSKADYEKHKVYACEVTHQGLSSPVTKSFNRGEC
For B1, the “tumor volume (mm^3 ± SEM)” value (Dose 1 mg/kg Q4dx4 iv, DAY 7) was 452 ± 30 mm^3, the “tumor volume (mm^3 ± SEM)” value (Dose 1 mg/kg Q4dx4 iv, DAY 11) was 512 ± 35 mm^3 and the “tumor volume (mm^3 ± SEM)” value (Dose 1 mg/kg Q4dx4 iv, DAY 14) was 507 ± 38 mm^3. For the same molecule, the “tumor volume (mm^3 ± SEM)” value (Dose 1 mg/kg Q4dx4 iv, DAY 19) was 538 ± 47 mm^3, the “tumor volume (mm^3 ± SEM)” value (Dose 1 mg/kg Q4dx4 iv, DAY 22) was 551 ± 48 mm^3 and the “tumor volume (mm^3 ± SEM)” value (Dose 1 mg/kg Q4dx4 iv, DAY 25) was 575 ± 55 mm^3. The “tumor volume (mm^3 ± SEM)” value (Dose 1 mg/kg Q4dx4 iv, DAY 28) was 654 ± 74 mm^3, the “tumor volume (mm^3 ± SEM)” value (Dose 1 mg/kg Q4dx4 iv, DAY 32) was 653 ± 82 mm^3 and the “tumor volume (mm^3 ± SEM)” value (Dose 1 mg/kg Q4dx4 iv, DAY 35) was 734 ± 89 mm^3. For the same molecule, the “tumor volume (mm^3 ± SEM)” value (Dose 1 mg/kg Q4dx4 iv, DAY 40) was 761 ± 99 mm^3, the “tumor volume (mm^3 ± SEM)” value (Dose 1 mg/kg Q4dx4 iv, DAY 43) was 816 ± 122 mm^3 and the “tumor volume (mm^3 ± SEM)” value (Dose 1 mg/kg Q4dx4 iv, DAY 46) was 859 ± 126 mm^3. For the same molecule, the “tumor volume (mm^3 ± SEM)” value (Dose 1 mg/kg Q4dx4 iv, DAY 49) was 948 ± 178 mm^3, the “tumor volume (mm^3 ± SEM)” value (Dose 1 mg/kg Q4dx4 iv, DAY 53) was 1008 ± 192 mm^3 and the “tumor volume (mm^3 ± SEM)” value (Dose 3 mg/kg Q4dx4 iv, DAY 0) was 342 ± 18 mm^3. The “tumor volume (mm^3 ± SEM)” value (Dose 3 mg/kg Q4dx4 iv, DAY 4) was 394 ± 33 mm^3, the “tumor volume (mm^3 ± SEM)” value (Dose 3 mg/kg Q4dx4 iv, DAY 7) was 399 ± 24 mm^3 and the “tumor volume (mm^3 ± SEM)” value (Dose 3 mg/kg Q4dx4 iv, DAY 11) was 380 ± 25 mm^3. The “tumor volume (mm^3 ± SEM)” value (Dose 3 mg/kg Q4dx4 iv, DAY 14) was 401 ± 30 mm^3, the “tumor volume (mm^3 ± SEM)” value (Dose 3 mg/kg Q4dx4 iv, DAY 19) was 438 ± 39 mm^3 and the “tumor volume (mm^3 ± SEM)” value (Dose 3 mg/kg Q4dx4 iv, DAY 22) was 414 ± 41 mm^3. For the same molecule, the “tumor volume (mm^3 ± SEM)” value (Dose 3 mg/kg Q4dx4 iv, DAY 25) was 491 ± 37 mm^3, the “tumor volume (mm^3 ± SEM)” value (Dose 3 mg/kg Q4dx4 iv, DAY 28) was 497 ± 68 mm^3 and the “tumor volume (mm^3 ± SEM)” value (Dose 3 mg/kg Q4dx4 iv, DAY 32) was 524 ± 69 mm^3. The “tumor volume (mm^3 ± SEM)” value (Dose 10 mg/kg Q4dx4 iv, DAY 0) was 335 ± 9 mm^3, the “tumor volume (mm^3 ± SEM)” value (Dose 10 mg/kg Q4dx4 iv, DAY 4) was 395 ± 19 mm^3 and the “tumor volume (mm^3 ± SEM)” value (Dose 10 mg/kg Q4dx4 iv, DAY 7) was 350 ± 19 mm^3. For the same molecule, the “tumor volume (mm^3 ± SEM)” value (Dose 10 mg/kg Q4dx4 iv, DAY 11) was 248 ± 26 mm^3, the “tumor volume (mm^3 ± SEM)” value (Dose 10 mg/kg Q4dx4 iv, DAY 14) was 154 ± 23 mm^3 and the “tumor volume (mm^3 ± SEM)” value (Dose 10 mg/kg Q4dx4 iv, DAY 19) was 65 ± 17 mm^3. For the same molecule, the “tumor volume (mm^3 ± SEM)” value (Dose 10 mg/kg Q4dx4 iv, DAY 22) was 25 ± 16 mm^3, the “tumor volume (mm^3 ± SEM)” value (Dose 10 mg/kg Q4dx4 iv, DAY 25) was 26 ± 19 mm^3 and the “tumor volume (mm^3 ± SEM)” value (Dose 10 mg/kg Q4dx4 iv, DAY 28) was 15 ± 15 mm^3. The “tumor volume (mm^3 ± SEM)” value (Dose 10 mg/kg Q4dx4 iv, DAY 32) was 0 ± 0 mm^3, the “tumor volume (mm^3 ± SEM)” value (Dose 10 mg/kg Q4dx4 iv, DAY 35) was 0 ± 0 mm^3 and the “tumor volume (mm^3 ± SEM)” value (Dose 10 mg/kg Q4dx4 iv, DAY 40) was 0 ± 0 mm^3. The “tumor volume (mm^3 ± SEM)” value (Dose 10 mg/kg Q4dx4 iv, DAY 43) was 0 ± 0 mm^3, the “tumor volume (mm^3 ± SEM)” value (Dose 10 mg/kg Q4dx4 iv, DAY 46) was 0 ± 0 mm^3 and the “tumor volume (mm^3 ± SEM)” value (Dose 10 mg/kg Q4dx4 iv, DAY 49) was 0 ± 0 mm^3. The “tumor volume (mm^3 ± SEM)” value (Dose 10 mg/kg Q4dx4 iv, DAY 53) was 0 ± 0 mm^3, the “tumor volume (mm^3 ± SEM)” value (Dose 10 mg/kg Q4dx4 iv, DAY 56) was 0 ± 0 mm^3 and the “tumor volume (mm^3 ± SEM)” value (Dose 10 mg/kg Q4dx4 iv, DAY 60) was 0 ± 0 mm^3. The “tumor volume (mm^3 ± SEM)” value (Dose 10 mg/kg Q4dx4 iv, DAY 63) was 0 ± 0 mm^3.
